Results on 43 compounds are retold here after ChEMBL document CHEMBL4888484, “Replenishing the malaria drug discovery pipeline: Screening and hit evaluation of the MMV Hit Generation Library 1 (HGL1) against asexual blood stage Plasmodium falciparum ,using a nano luciferase reporter read-out” (2022).

The campaign covered roughly 150,000 compounds. About 540 (0.36%) showed an effect of 50% or more. The list shows a part of the results.

As usually defined, the % Inhibition is the relative decrease from the control value, in per cent.

For the experiment, the system named is Plasmodium falciparum. Nature of the experiment: Primary screen in NF54 nanoGlo assay, in single point, at 2uM, 72h; a lower Z score goes with more inhibition. In kind it is functional, Erythrocyte. The following applies: timepoint 72 hour.
As for `CN(c1cccc2cccnc12)S(=O)(=O)c1cccc(C(=O)O)c1`, the “% Inhibition” value is on record as -7% and the Z score is listed as 0.82.
Regarding `Cc1cc(C(=O)Nc2nnc(-c3cc(C)oc3C)o2)no1`, the “% Inhibition” value was -8% and the Z score worked out at 1.22.
Turning to `COc1ccc(C(C)N[C@@H]2C=C[C@H](CO)C2)c2ccccc12` (stereo partly specified), the “% Inhibition” value is -11% and the Z score was 1.19.
Regarding `CC[C@H](NC(=O)N(Cc1ccccc1F)C1CCC1)c1nccs1`, the “% Inhibition” value was 16% and the Z score is recorded as -1.57.
With `O=C(c1ccc2nnnn2c1)N1CC=C(c2ccccc2)CC1`, the “% Inhibition” value is -16% and the Z score stood at 1.83.
Consider `OCCCN(CCO)c1nc(C2CC2)no1`, for which the “% Inhibition” value is listed as -14% and the Z score was 1.45.
In the case of `CC(C)(C)c1cc(C(=O)N2CCC(CN3CCCCC3)CC2)[nH]c(=O)n1`, the “% Inhibition” value was -6% and the Z score was 1.02.
Consider `O=C(c1cncn1-c1ccc(-c2ccc(F)c(F)c2)cc1)N1CCC(CCc2ccc(F)cc2)CC1`, for which the “% Inhibition” value is -11% and the Z score came to 1.77.
The matching figures for `COc1cc(CN2CC[C@H](N3CCOCC3)[C@H](CCCO)C2)ccc1F`: 4% and -0.65.
For `N#Cc1ccccc1CN1C[C@@H](CN2CCCCC2)[C@@H](CO)C1`, the “% Inhibition” value was determined as 3% and the Z score was -0.38.
The matching figures for `CCn1nc(C)cc1C(=O)OCCC(=O)NC`: -4% and 0.52.
`Nc1c2c(-c3ccccc3F)nc(N3CCN(c4ccccc4)CC3)nc2nn1-c1ccc(Cl)c(Cl)c1`: the “% Inhibition” value was -8% and the Z score was determined as 0.96.
On to `COc1ccc2c(c1)CCCN(C(=O)CC1(O)CCCC1)C2`, for which the “% Inhibition” value was -6% and the Z score was determined as 0.9.
On to `CCn1cc(NC(=O)Cn2ncc(N(C)Cc3ccccc3)cc2=O)nn1`, for which the “% Inhibition” value was -15% and the Z score came to 1.43.
The like results for `Cn1cncc1CC(=O)N1C[C@H](C(=O)O)[C@@H](c2ccc(F)cc2F)C1` were, in that order, -4% and 0.56.
Regarding `O=C1C[C@H](C(=O)Nc2cccc(-c3ccccc3)c2)CN1`, the “% Inhibition” value is on record as 4% and the Z score was -0.42.
For `Cc1ccc(NC(=O)N2CCCCC3CCCCC32)cc1` (stereo unspecified), the “% Inhibition” value is -1% and the Z score is reported as 0.19.
The matching figures for `O[C@H]1C[C@H](C(Nc2ccc(C(F)(F)F)cn2)c2ccccn2)C1` (stereo partly specified): -10% and 1.13.
`CCCn1ncc(C(=O)N2CC[C@@]3(CCCN(Cc4cccc(C)c4)C3)C2)c1C`: the “% Inhibition” value is reported as -6% and the Z score is 0.82.
As for `CC1OC23CCCCC2C2(C#N)C(=N)N=C(O3)C12C#N` (stereo unspecified), the “% Inhibition” value is -5% and the Z score is 0.67.
In the case of `CC1CN(CCCOC2CCCCO2)CCS(=O)(=O)C1` (stereo unspecified), the “% Inhibition” value was -7% and the Z score was found to be 1.16.
As to `CC(C)N(C(=O)CCc1ccc2[nH]ccc2c1)C1CCOCC1`, the “% Inhibition” value is given as -9% and the Z score worked out at 1.19.
On to `O=C1OC(C(=O)N2CCCC2c2ccncc2)Cc2ccccc21` (stereo unspecified), for which the “% Inhibition” value was -1% and the Z score worked out at 0.1.
`Nc1ccc(-c2noc(C(F)(F)F)n2)cn1`: the “% Inhibition” value stood at 11% and the Z score was -2.
As for `CC(C)(C)C(=O)NCCn1cccnc1=O`, the “% Inhibition” value stood at 9% and the Z score is reported as -1.12.
The matching figures for `O=S1(=O)CC[C@H](CCc2cccc3cc[nH]c23)C1`: 6% and -0.73.
The matching figures for `CCc1cccc(NC(=O)Cn2c3ccccc3n3c(=O)cc(-c4ccc(F)cc4)nc23)c1`: -4% and 0.51.
The like results for `Cc1nc2n(CCN3CCOCC3)c3ccccc3n2n1` were, in that order, 32% and -3.68.
Regarding `O=C(Nc1c2c(nc3ccccc13)CCCC2)c1ccccc1Cl`, the “% Inhibition” value amounted to 9% and the Z score is recorded as -1.25.
`CC[C@H](NC(=O)Nc1ccc(N(C)C)cc1C)c1nc(-c2ccccc2)c[nH]1`: the “% Inhibition” value is -10% and the Z score is on record as 1.65.
As to `CC(=O)Nc1nc2ccc(NC(=O)c3ccnn3C)cc2s1`, the “% Inhibition” value is -6% and the Z score is on record as 0.59.
Turning to `CNS(=O)(=O)C1CCN(CC(=O)NC2CCCC(C)C2C)CC1` (stereo unspecified), the “% Inhibition” value came out at 9% and the Z score was -1.47.
The like results for `O=C(Cn1cnc2ccccc21)N1CCC(N2CCC[C@@H]2COCc2ccccc2)CC1` were, in that order, -12% and 2.19.
For `c1cc(-c2cnc3cncn3c2)ccc1OC[C@H]1CCCCO1`, the “% Inhibition” value was -11% and the Z score was 1.39.
With `COC1CC(Nc2cccnc2C#N)C1(C)C` (stereo unspecified), the “% Inhibition” value was -12% and the Z score is 1.3.
`COc1ncccc1-c1ccc(NC2CCCC2)nn1`: the “% Inhibition” value is -14% and the Z score was 2.22.
As to `O=C(Nc1ccc2c(c1)CCC2)c1cccc(S(=O)(=O)N2CCOCC2)c1`, the “% Inhibition” value was 6% and the Z score was -1.01.
Consider `Cc1cc(C(=O)NC[C@@H](c2ccc(F)cc2)N2CCCC2)cnc1C`, for which the “% Inhibition” value is -7% and the Z score is on record as 1.09.
In the case of `Cc1nc(O)c(C(=O)NCCc2nncn2C)cc1Br`, the “% Inhibition” value is -10% and the Z score is 1.17.
For `COc1ccc(C(=O)Nc2cccnc2N(C)C)cc1-c1ccccn1`, the “% Inhibition” value is recorded as -12% and the Z score is recorded as 2.28.
For `O=C(NCCNc1ncccn1)c1ccoc1`, the “% Inhibition” value is -3% and the Z score amounted to 0.39.
As for `Cc1cc(C(=O)NS(=O)(=O)C2CCCOC2)nn1C(C)C1CC1` (stereo unspecified), the “% Inhibition” value is -11% and the Z score was determined as 1.91.
With `Cc1nnc(NC(=O)CN2CCc3nc(NC(=O)c4ccoc4)sc3C2)s1`, the “% Inhibition” value is -8% and the Z score stood at 1.62.
